PubChem BioAssay AID1477 (National Center for Advancing Translational Sciences (NCATS), 2009)
In all, about 230,000 compounds went through this assay and fewer than 10 were called active. This list was built around the results that the source calls inconclusive (neither active nor inactive); the mix of calls is not that of the screen. Calls follow the shape of the dose curve; as a rule, active = well fitted curve in the direction sought with a large enough effect; inconclusive = small, poorly fitted or top-dose-only effect, or effect the other way, or another doubt; inactive = no such curve, though single readings can be large or run the other way. No potency is given beside an inconclusive call; the fits are too rough.

The compounds below were run against Runt-related transcription factor 1 (Homo sapiens) + Core-binding factor subunit beta (Homo sapiens) (UniProt Q01196+Q13951) (assay: qHTS Assay for Compounds Blocking the Interaction Between CBF-beta and RUNX1 for the Treatment of Acute Myeloid Leukemia). Settings: AlphaScreen CBFb-His/RUNX1-biotin binding, biochemical; series mostly up to 59.8 µM.
UniProt Q01196, sequence (Q01196 whole entry, looked up): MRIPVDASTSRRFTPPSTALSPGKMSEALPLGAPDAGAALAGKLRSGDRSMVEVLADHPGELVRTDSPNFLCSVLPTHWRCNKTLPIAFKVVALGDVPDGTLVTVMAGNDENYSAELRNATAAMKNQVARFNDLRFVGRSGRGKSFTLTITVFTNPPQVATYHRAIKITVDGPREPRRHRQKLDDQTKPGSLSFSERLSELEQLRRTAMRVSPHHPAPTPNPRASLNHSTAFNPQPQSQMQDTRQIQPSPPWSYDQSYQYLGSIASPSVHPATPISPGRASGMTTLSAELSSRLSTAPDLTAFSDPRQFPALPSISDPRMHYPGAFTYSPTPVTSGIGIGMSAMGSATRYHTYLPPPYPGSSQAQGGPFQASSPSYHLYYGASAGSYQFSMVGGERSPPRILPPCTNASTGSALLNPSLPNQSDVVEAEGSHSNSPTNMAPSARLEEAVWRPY
UniProt Q01196, sequence (Q13951 whole entry, looked up): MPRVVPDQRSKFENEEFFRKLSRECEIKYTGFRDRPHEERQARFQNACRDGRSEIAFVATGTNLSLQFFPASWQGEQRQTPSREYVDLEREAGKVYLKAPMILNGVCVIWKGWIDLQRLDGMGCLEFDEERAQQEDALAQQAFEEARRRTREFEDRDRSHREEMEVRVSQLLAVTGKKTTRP
Excerpt: NIH Chemical Genomics Center [NCGC]
NIH Molecular Libraries Probe Production centers Network [MLPCN]
Assay Submitter (PI): Paul Liu
Core Binding Factor (CBF) abnormalities are associated with 20-25% of all acute myeloid leukemias (AML), of which 5-10% are further sub classified as acute myelomonocytic leukemia with eosinophilia, also known as M4Eo in the FAB classification scheme. This subtype of leukemia is usually associated with chromosome 16 inversion (p13:q22). Chromosome 16 inversion results in formation of the fusion oncogene CBFB-MYH11, which encodes the fusion protein CBF-beta-SMMHC.
It has been hypothesized that the interference of CBF-beta and RUNX1 binding could have therapeutic implications for patients with CBF mediated leukemias. We developed a CBF-beta and RUNX1 binding assay in AlphaScreenTM format and optimized it for high throughput screening to search for inhibitors. The goal of this project is to screen MLPCN's compound collection (MLSMR) for identifying the inhibitors of the interaction between CBF-beta and RUNX1 proteins as research probes. If these probes work well in the animal models, the ultimate goal of this project is to development a new drug treatment for this disease.
This assay can not be used to assess how apparent inhibitors interfere with protein binding, and whether inhibitors specifically bind to either protein. Disruption of this protein-protein interaction, through any mechanism, is the intended target activity.
NCGC Assay Protocol Summary:
Step, Parameter, Description
(1) Reagent, 3 uL CBFb-His/RUNX1-biotin mix incubated together for 20 minutes at room temperature (30 nM each)
(2) Compound or control, 23 nL compound stock solution
(3) Incubation, 15 minutes at Room temperature
(4) Reagent, 1 uL 50 ng each of beads (Nickel beads and streptavidin beads)
(5) Incubation, 90 minutes at Room temperature
(6) Detection, Excitation=365 nm Emission=440 nm, Envision reader in AlphaScreenTM mode
Keywords: MLSMR, MLPCN, NIH Roadmap, qHTS, NCGC, Core binding factor, CBF, CBF-beta, Acute myeloid leukemia

Row | SMILES | Potency
1 | Cc1ccc(NC(=O)CC2SC(=O)N(c3ccccc3)C2=O)cc1 (stereo not drawn) | inactive
2 | Cc1cc(C(=O)CSc2nnnn2-c2ccccc2)c(C)n1-c1ccc2c(c1)OCO2 | inactive
3 | Cc1cccc(N=Nc2cnc(N)s2)c1 | inactive
4 | CCCSC1=N/C(=C/c2ccsc2)C(=O)N1c1ccccc1 | inconclusive [activator, single point]
5 | O=C(/C=C/c1ccco1)NC(=S)Nc1ccccn1 | inactive
6 | N#Cc1ccc(CSc2nnc(NC(=O)c3ccc4ncsc4c3)s2)cc1 | inconclusive [activator, full curve]
7 | O=[N+]([O-])c1cc(/C=N/OCc2c(Cl)cccc2Cl)ccc1N1CCOCC1 | inconclusive [inhibitor, single point]
8 | NS(=O)(=O)c1ccc(CCNC(=O)Cc2ccc(S(=O)(=O)N3CCCC3)s2)cc1 | inconclusive [inhibitor, single point]
9 | O=[N+]([O-])c1ccc(O)c(NC(=S)Nc2ccccc2)c1 | inactive
10 | O=C1NNC(c2ccccc2)=N/C1=C\c1ccco1 | inconclusive [inhibitor, single point]
11 | COc1ccc([N+](=O)[O-])c(S(=O)(=O)c2ccc(Cl)cc2)n1 | inactive
12 | O=C(CCN1C(=O)/C(=C/c2ccccc2Cl)SC1=S)NC1=NCCS1 | inconclusive [inhibitor, partial curve]
13 | c1ccc2[nH]c(CN3CCOCC3)nc2c1 | inactive
14 | O=C(/C=C/c1ccc(Br)o1)Nc1nccs1 | inconclusive [inhibitor, single point]
15 | COc1ccc(C(=O)NC(=S)NNC(=O)c2cnccn2)cc1 | inactive
16 | Cn1cccc1Cc1nnc(SCC(=O)N2CCc3ccccc32)n1CCc1ccccc1 | inconclusive [inhibitor, single point]
17 | C=CCC(Nc1ccco1)c1ccccc1 (stereo not drawn) | inconclusive [inhibitor, single point]
18 | O=C(Cc1cccs1)N/N=C\c1ccc([N+](=O)[O-])s1 | inconclusive [inhibitor, partial curve]
19 | COc1ccc(N=Cc2ccc(-c3ccccc3)o2)cc1 | inactive
20 | CN(Cc1ccccc1)C(=O)c1nc2ccccn2c1CN1CCC(N2CCOCC2)CC1 | inactive
21 | CC1=CC2(O)OCCN(CCO)C2=CC1=O (stereo not drawn) | inconclusive [inhibitor, partial curve]
22 | COc1cccc(OCC(=O)Nc2cc(Cl)ccc2Oc2ccccc2)c1 | inconclusive [activator, single point]
23 | CCC(=O)Oc1ccc(C/C(=N\O)c2ccc(O)cc2O)o1 | inactive
24 | Cc1nc(SCC(=O)Nc2ccccn2)n[nH]1 | inactive

Row | SMILES | Potency
25 | O=C(Cc1c(F)cccc1Cl)Nc1ccccc1N1CCCCC1 | inconclusive [activator, single point]
26 | CN1CCN(/C(=N\O)c2nonc2N)CC1 | inactive
27 | C[C@H](Cc1ccc(O)c(O)c1)[C@@H](C)Cc1ccc(O)c(O)c1 | inconclusive [inhibitor, partial curve]
28 | COc1cccc([C@@H]2Oc3ccc(OC)cc3C(=O)[C@H]2OC(=O)NCCc2ccc(OC)c(OC)c2)c1 | inconclusive [inhibitor, single point]
29 | O=C(N/N=C/c1cccc2cccnc12)c1ccccc1O | inconclusive [inhibitor, single point]
30 | CCc1ccc(Nc2ccc(S(=O)(=O)N3CCOCC3)cc2[N+](=O)[O-])cc1 | inconclusive [inhibitor, partial curve]
31 | CC(C)(C)c1ccc(S(=O)(=O)N2CCN(CCC#N)CC2)cc1 | inactive
32 | O=S(=O)(Nc1ccc(N=Nc2ccccc2)cc1)c1ccccc1 | inconclusive [inhibitor, partial curve]
33 | Cc1onc(-c2ccccc2)c1-c1nnc(-c2ccccc2C(F)(F)F)o1 | inconclusive [inhibitor, single point]
34 | N/C(Cc1ccccc1)=N\OC(=O)c1cccc2ccccc12 | inconclusive [activator, single point]
35 | CCCN1CCc2cc(O)cc3c2C1Cc1ccc(O)c(O)c1-3 (stereo not drawn) | inconclusive [inhibitor, partial curve]
36 | CCOc1ccc(CNc2ccc(N3CCCC3)cc2)cc1 | inconclusive [inhibitor, partial curve]
37 | O=C(CNc1ccc2ccccc2c1)N/N=C/c1cc2ccccc2nc1Cl | inconclusive [inhibitor, single point]
38 | Cc1nc(N2N=C3/C(=C/c4ccc(F)cc4)CCCC3C2c2ccc(F)cc2)sc1C(=O)N(C)C (stereo not drawn) | inconclusive [activator, partial curve]
39 | CN(Cc1cc(Br)cc(Br)c1N)C1CCCCC1 | inconclusive [activator, partial curve, poor fit]
40 | COCCSc1nnc(NC(=O)CSCc2ccccc2)s1 | inactive
41 | Cc1cc(Oc2ccccc2)nc(-c2ccccc2O)n1 | inconclusive [activator, single point]
42 | N#CC1=C(SCC(=O)c2ccccc2)NC2=C(C(=O)CCC2)C1c1ccco1 (stereo not drawn) | inactive
43 | CCOc1ccc(N2C(=O)c3ccc(C(=O)OCC(=O)N(CC)C4CCS(=O)(=O)C4)cc3C2=O)cc1 (stereo not drawn) | inconclusive [inhibitor, single point]
44 | CC(=O)c1c(O)c(C)c(O)c(Cc2c(O)c3c(c(C(=O)/C=C\c4ccccc4)c2O)OC(C)(C)C=C3)c1O | inconclusive [inhibitor, partial curve]
45 | O=[N+]([O-])c1ccc2nc(-c3ccccc3)[nH]c2c1 | inactive
46 | O=c1cc(-c2ccc(O)cc2)oc2cc(O)c(C3OC(CO)C(O)C(O)C3O)c(O)c12 (stereo not drawn) | inconclusive [inhibitor, single point]
47 | CC1(C(O)(C#CC[N+]2(C)CCCCC2)c2ccccc2)CCCC1 (stereo not drawn) | inactive
48 | COc1ccccc1N(C)S(=O)(=O)c1ccc(C(=O)OCC(=O)Nc2ccccc2F)cc1 | inactive
